Whole data set: some 3,600 compounds, median “viability index relative to DMSO control” near 0.81, cut for the lowest 2% near 0.13. Some of the results follow.
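Also: 384-well serum-free SaLSSA: MitoTracker Red CMXRos staining with saponin lysis, high-content imaging, treated-well particle count divided by plate-mean count of DMSO wells.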

In the assay the test system is Plasmodium falciparum NF54 stage V gametocytes. The assay can be described thus: viability index relative to DMSO control (fraction); higher = less gametocyte killing. The following applies: 1.25 µM, incubation time: 72 h.
In turn, `COc1ccc2[nH]c3ccccc3c(=O)c2c1` had a viability index of 0.385.
Regarding `Cc1cc(C)cc(NC2=C(N)C(=O)c3ccccc3C2=O)c1`, the viability index came out at 0.707.
The same measure for `CCOc1cc2c(cc1OCC)C(c1cc(Cl)ccc1O)NCC2` (stereo not drawn): 1.04; for `CCOc1ccc(-c2c[n+](-c3ccccc3)c3n2CCS3)cc1`: 1.28.
`COc1ccc2[nH]c(SCC(=O)Nc3cccc(NC(=O)CSc4nc5cc(OC)ccc5[nH]4)n3)nc2c1`: the viability index came to 0.353.
The same measure for `CCCCCC[n+]1ccccc1C=Cc1ccc(N(C)C)cc1`: 0.61; for `CCN1CCN(Cc2cc(=O)oc3cc(-c4ccccc4)c(O)cc23)CC1`: 0.632; for `COc1ccccc1C1CC(c2ccccc2)=NN1C(=O)c1ccccc1` (stereo not drawn): 0.416.
Compound `O=C(Nc1cccc(Cl)c1)c1cc2ccccc2cc1O` had a viability index of 0.779.
The same measure for `COc1cc(CNc2ccc(N3CCCCC3)cc2)ccc1OCc1ccccc1F`: 0.614.
The same measure for `COc1ccc(-c2noc(N3CCc4ccccc4C3)n2)cc1`: 1.04.
`Cc1ccc(C)c(Nc2nc(NCc3ccco3)c3ccccc3n2)c1` yielded a viability index of 0.938.
`O=C(NCCN1CCOCC1)c1ccc(Cl)cc1`: the viability index is 0.771.
Under `COC(=O)C1=C(C)NC(=Cc2cc(C)n(-c3ccccc3F)c2C)C1=O` stands 0.942; under `CCOc1ccc2nc(C)cc(Nc3ccc(C)c(Cl)c3)c2c1`, 0.852.
The same measure for `COc1cccc(NC(=O)Cn2c(C)c(C(C)=O)c3ccccc32)c1`: 0.645.
The same measure for `COc1ccc(NC(=O)Cn2c(C)c(C=O)c3ccccc32)cc1`: 0.906; for `Cc1ccc(C#N)c(SCc2nnc(-c3ccc(Cl)cc3)o2)n1`: 0.552; for `C[n+]1ccc(C=Cc2ccc(Br)cc2)cc1`: 0.793.
As to `Cc1ccc2c(c1)NC(c1ccc(F)cc1)C1=C(CC(c3ccccc3)CC1=O)N2` (stereo not drawn), the viability index turned out to be 0.649.
The same measure for `CCc1ccc(NC(=O)c2sc3nc4c(c(-c5ccco5)c3c2N)CCCC4)cc1`: 0.587.
Under `O=C(NCC1CCCO1)c1cc(S(=O)(=O)N2CCCCC2)c[nH]1` (stereo not drawn) stands 1.08; under `Clc1ccc2c(N3CCCC3)ccnc2c1`, 0.837.
Under `O=[N+]([O-])c1cc([N+](=O)[O-])c2cccnc2c1Nc1cccc2cccnc12` stands 0.209.
Take `COc1cccc(C(NC(=O)c2ccccc2)c2ccc3cccnc3c2O)c1` (stereo not drawn): the viability index was 0.706.
`Cc1nc2ccccc2c(O)c1CC=C(Cl)Cl`: the viability index is 0.699.
Under `O=C1CC(c2ccccc2)CC2=C1C(c1cc(F)ccc1F)Nc1ccccc1N2` (stereo not drawn) stands 0.703; under `Cc1ccc(NC2=C(c3ccc(C(F)(F)F)cc3)C(=O)c3ccccc32)cc1C`, 1.01.

The values are drawn from the supplement of paper PMC4723716.
